Measurements reported in the supplement of paper PMC6609913.
Where a name gives a salt, the structure may show the parent alone. ± gives the standard deviation of the averaged measurements. The full ranking holds about 1,300 compounds; the median of “normalised cell viability” is about 1, and the lowest 2% start at about 0.14. The list shows a part of the results.

Test system: V-C8 (BRCA2-deficient hamster cells)
Test: normalised cell viability (fraction of plate median); higher = more viable cells (less toxic)
Settings: 5 µM
In short: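 Cell viability was measured with a resazurin assay, normalised to the plate median (modified robust per cent of sample) and averaged over triplicate wells. Hamster V-C8 cells lacking BRCA2 and V-C8 cells with BRCA2 restored were seeded in 96-well plates. After 24 h, library drugs from 10 mM DMSO stocks were added at a final 5 μM in 100 μl medium and left for 3 days (screen 1) or 6 days (screen 2), with solvent-only wells alongside.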

Row | Compound | normalised cell viability (treatment time: 3 days) | normalised cell viability (treatment time: 6 days)
1 | CCOc1cc(CC(=O)N[C@@H](CC(C)C)c2ccccc2N2CCCCC2)ccc1C(=O)O [Repaglinide] | 0.912 ± 0.2 | 1.06 ± 0.15
2 | CCOC(=O)C1=C(C)NC(C)=C(C(=O)OCC)C1c1ccccc1/C=C/C(=O)OC(C)(C)C [Lacidipine] | 0.971 ± 0.024 | 0.888 ± 0.056
3 | COc1ccc(C(=O)CC(=O)c2ccc(C(C)(C)C)cc2)cc1 [Avobenzone] | 1.01 ± 0.019 | 0.986 ± 0.044
4 | COc1ncnc(NS(=O)(=O)c2ccc(N)cc2)c1OC [Sulfadoxine] | 1.16 ± 0.35 | 1.01 ± 0.074
5 | CC(=O)OCC(=O)[C@@]1(O)[C@H](C)C[C@H]2[C@@H]3CCC4=CC(=O)C=C[C@]4(C)[C@@]3(F)[C@@H](O)C[C@@]21C [Dexamethasone acetate] | 1.06 ± 0.051 | 1.05 ± 0.074
6 | COc1c(N2C[C@@H]3CCCN[C@@H]3C2)c(F)cc2c(=O)c(C(=O)O)cn(C3CC3)c12 [Moxifloxacin] | 1.02 ± 0.1 | 0.974 ± 0.052
7 | COc1ccc(C(=O)c2ccccc2)c(O)c1 [Oxybenzone] | 0.975 ± 0.061 | 1 ± 0.011
8 | CCCCCN(CCCCC)C(=O)C(CCC(=O)O)NC(=O)c1ccc(Cl)c(Cl)c1 (centres undefined) [Lorglumide sodium salt] | 1.023 ± 0.0093 | 1 ± 0.021
9 | CC(C)(C)NC(=O)[C@@H]1C[C@@H]2CCCC[C@@H]2CN1C[C@@H](O)[C@H](Cc1ccccc1)NC(=O)[C@H](CC(N)=O)NC(=O)c1ccc2ccccc2n1 [Saquinavir mesylate] | 0.823 ± 0.21 | 0.943 ± 0.06
10 | Nc1nc2c(ncn2COCCO)c(=O)[nH]1 [Acyclovir] | 1.01 ± 0.024 | 0.996 ± 0.037
11 | CCCC1O[C@@H]2C[C@H]3[C@@H]4CCC5=CC(=O)C=C[C@]5(C)[C@H]4[C@@H](O)C[C@]3(C)[C@]2(C(=O)CO)O1 (some centres undefined) [Budesonide] | 0.694 ± 0.041 | 0.709 ± 0.068
12 | Cc1ccccc1OCC(O)CO (centres undefined) [Mephenesin] | 0.965 ± 0.04 | 0.998 ± 0.037
13 | O=C1CN(/N=C/c2ccc([N+](=O)[O-])o2)C(=O)N1 [Nitrofurantoin] | 0.937 ± 0.025 | 1.15 ± 0.29
14 | CCN(CC)CCOC(=O)C(Cc1cccc2ccccc12)CC1CCCO1 (centres undefined) [Nafronyl oxalate] | 0.1613 ± 0.00033 | 0.14 ± 0.0088
15 | C[C@H](N)[C@H](O)c1cccc(O)c1 [Metaraminol bitartrate] | 1.19 ± 0.19 | 0.98 ± 0.15
16 | CCOC(=O)n1ccn(C)c1=S [Carbimazole] | 0.287 ± 0.012 | 0.428 ± 0.02

Row | Compound | normalised cell viability (treatment time: 3 days) | normalised cell viability (treatment time: 6 days)
17 | O=C1CN(/N=C/c2ccc(-c3ccc([N+](=O)[O-])cc3)o2)C(=O)N1 [Dantrolene sodium salt] | 1.04 ± 0.083 | 1.08 ± 0.043
18 | Cc1cc(NS(=O)(=O)c2ccc(N)cc2)no1 [Sulfamethoxazole] | 1.02 ± 0.028 | 0.959 ± 0.076
19 | CN[C@@H]1[C@@H](O)[C@@H](O[C@@H]2[C@@H](O)[C@H](O[C@H]3OC(CN)=CC[C@H]3N)[C@@H](N)C[C@H]2N)OC[C@]1(C)O [Sisomicin sulfate] | 0.157 ± 0.0072 | 0.145 ± 0.0056
20 | CC1(C)S[C@@H]2[C@H](NC(=O)[C@H](C(=O)O)c3ccsc3)C(=O)N2[C@H]1C(=O)O [Ticarcillin sodium] | 1.03 ± 0.049 | 0.9851 ± 0.0039
21 | COC(=O)C1=C(C)NC(C)=C(C(=O)OC2CCCN(Cc3ccccc3)C2)C1c1cccc([N+](=O)[O-])c1 (centres undefined) [Benidipine hydrochloride] | 0.94 ± 0.04 | 0.863 ± 0.04
22 | C[C@]12C[C@H](O)[C@H]3[C@@H](CCC4=CC(=O)CC[C@@]43C)[C@@H]1CC[C@@H]2C(=O)CO [Corticosterone] | 1.01 ± 0.15 | 1.05 ± 0.11
23 | CC[C@H]1OC(=O)C[C@@H](O)[C@H](C)[C@@H](O[C@@H]2O[C@H](C)[C@@H](O[C@H]3C[C@@](C)(O)[C@@H](O)[C@H](C)O3)[C@H](N(C)C)[C@H]2O)[C@@H](CC=O)C[C@@H](C)C(=O)/C=C/C(C)=C/[C@@H]1CO[C@@H]1O[C@H](C)[C@@H](O)[C@@H](OC)[C@H]1OC [Tylosin] | 1.02 ± 0.036 | 0.978 ± 0.077
24 | O=C(CCCCCCC(=O)Nc1ccccc1)NO [Vorinostat] | 0.14 ± 0.012 | 0.168 ± 0.012
25 | CC1(C)O[C@@H]2C[C@H]3[C@@H]4CCC5=CC(=O)C=C[C@]5(C)[C@H]4[C@@H](O)C[C@]3(C)[C@]2(C(=O)CO)O1 [Desonide] | 1.02 ± 0.014 | 0.981 ± 0.026
26 | C/C(=C(\CCOP(=O)(O)O)SC(=O)c1ccccc1)N(C=O)Cc1cnc(C)nc1N [Benfotiamine] | 0.942 ± 0.095 | 1.02 ± 0.028
27 | CCN(CC)C(=S)SSC(=S)N(CC)CC [Disulfiram] | 0.237 ± 0.038 | 0.667 ± 0.0071
28 | Nc1c2c(nc3ccccc13)CCCC2 [Tacrine hydrochloride] | 0.984 ± 0.031 | 1.1 ± 0.049
29 | CC[C@H](C)C(=O)O[C@H]1C[C@@H](C)C=C2C=C[C@H](C)[C@H](CC[C@@H]3C[C@@H](O)CC(=O)O3)[C@H]21 [Lovastatin] | 0.213 ± 0.0055 | 0.172 ± 0.007
30 | Cc1c(C)c2c(c(C)c1O)CCC(C)(C(=O)O)O2 (centres undefined) [Trolox] | 1.05 ± 0.051 | 1.01 ± 0.074
31 | CCN(CC)CCOC(=O)c1ccc(N)cc1 [Procaine hydrochloride] | 0.9991 ± 0.0032 | 1.033 ± 0.0093
32 | CC(=O)O[C@H]1C[C@@]2(C)[C@@H](C[C@@H](O)[C@H]3[C@@]4(C)CC[C@@H](O)[C@@H](C)[C@@H]4CC[C@@]32C)/C1=C(\CCC=C(C)C)C(=O)O [Fusidic acid sodium salt] | 1.04 ± 0.011 | 1.07 ± 0.048
